Measured values taken from PubChem BioAssay AID624417 (National Center for Advancing Translational Sciences (NCATS), 2012).
Out of some 410,000 compounds screened, about 6,400 (1.6%) were called active. The inconclusive results got no clear call from the source; some entries with a clear call stand among them for comparison. Calls follow the shape of the dose curve; as a rule, active = well fitted inhibition curve with a large enough effect; inconclusive = small, poorly fitted or top-dose-only effect; inactive = no such curve, though single readings can be large or run the other way. Potencies of inconclusive entries are doubtful fits and often do not repeat.

What follows are compounds tested against Glucagon-like peptide 1 receptor (Homo sapiens) (UniProt P43220) (assay: qHTS of GLP-1 Receptor Inverse Agonists (Inhibition Mode)). Conditions: HEK293 GLP-1R CRE-luciferase, luminescence, 24 h, GLP-1R form is constitutively active; activity change, negative = inhibition: at 38.3 µM (top of the series) unless noted.
In short: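 HEK293 cells stably co-expressing constitutively active GLP-1R and a cAMP-responsive luciferase reporter were seeded in DMEM with 10% Nu serum, given compounds after 12 h, and incubated 24 h at 37 deg C. Luminescence was then read.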
% is scaled to controls: 0 for no effect and ±100 for the full control effect; potency is read from the fitted curve at half-maximal effect; tags tell the direction and shape of the fitted curve.
Also: nearly all actives have a fitted effect of over 55% in size.

Sequence of UniProt P43220 (P43220 whole entry, looked up): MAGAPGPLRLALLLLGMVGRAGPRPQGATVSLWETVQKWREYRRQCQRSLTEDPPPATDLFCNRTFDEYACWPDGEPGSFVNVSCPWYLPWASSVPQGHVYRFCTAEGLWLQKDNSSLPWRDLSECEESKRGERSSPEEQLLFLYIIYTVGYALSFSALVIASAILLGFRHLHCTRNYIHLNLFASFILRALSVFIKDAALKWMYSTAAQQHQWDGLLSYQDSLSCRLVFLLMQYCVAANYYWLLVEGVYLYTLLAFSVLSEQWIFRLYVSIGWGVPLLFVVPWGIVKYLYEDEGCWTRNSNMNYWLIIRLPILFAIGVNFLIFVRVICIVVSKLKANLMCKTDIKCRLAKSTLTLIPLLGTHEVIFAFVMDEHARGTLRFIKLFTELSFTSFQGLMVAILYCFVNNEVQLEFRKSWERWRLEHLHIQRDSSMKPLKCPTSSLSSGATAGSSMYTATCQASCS

Potency, inconclusive:
O=C(CCC1CCCCC1)Nc1cc(C(F)(F)F)ccc1N1CCOCC1 28.2 µM [inhibitor, single point]
CCCCNC(=O)C[C@@H]1C[C@@]2(C(=O)OC)CCCCC=C2N(Cc2ccc(Cl)cc2Cl)C1=O 20 µM [inhibitor, single point]
Cn1nc(C(C)(C)C)c(NC(=O)c2sccc2Cl)c1C(C)(C)C 28.2 µM [inhibitor, single point]
Cc1cc(C)c(C#N)c(OCC(=O)c2ccccc2)n1 28.2 µM [inhibitor, single point]
O=C(N/N=C/c1c[nH]c2ccccc12)c1ccc2c(c1)OCCO2 8.91 µM [inhibitor, single point]
O=C(NCC1CCCO1)C1CCCN(Cc2cnn(-c3ccccc3)c2-n2cccc2)C1 (centres undefined) 8.91 µM [inhibitor, partial curve, poor fit]
CCOC(=O)/C(C#N)=C\c1c(OCC)n(CC)c2ccccc12 11.2 µM [inhibitor, single point]
COc1ccc2[nH]c3c(c2c1)CCN1C(=O)C(CC(=O)NCCCn2ccnc2)C[C@H](C(=O)N2CCOCC2)[C@@]31C (some centres undefined) 28.2 µM [inhibitor, single point]
O=C(NC(c1ccc(Cl)cc1)c1ccccn1)C1CCN(CCOc2ccc(Cl)cc2Cl)CC1 (centres undefined) 11.2 µM [inhibitor, partial curve, poor fit]
CCN(CC)S(=O)(=O)c1ccc(NC(=O)Cn2cnc3ccccc3c2=O)cc1 11.2 µM [inhibitor, partial curve, poor fit]
Cc1cc(C)c(S(=O)(=O)N2CCN(C(=O)N3CCCCC3)CC2)c(C)c1 11.2 µM [inhibitor, partial curve, poor fit]
O=C(CC(C(=O)O)c1ccc(Cl)cc1)c1ccc(Cl)c(Cl)c1 (centres undefined) 10 µM [inhibitor, partial curve, poor fit]
Cc1ccc([C@@H]2CC=C(C(=O)O)[C@H](c3ccccc3)N2S(=O)(=O)c2ccc(C)cc2)cc1 5.62 µM [inhibitor, partial curve]

Activity change, negative = inhibition, inactive:
COc1cc2c(cc1OC)C(c1ccccc1C)CC(=O)N2 (centres undefined) 18.7%
COC(=O)c1ccc(OC(=O)/C=C/c2ccco2)cc1 37.1%
COCCCNC(=S)Nc1ccc(C)cc1 5.62%
COc1ccc(CNC(=O)C2CCCN(S(=O)(=O)c3ccc(-n4cnnn4)cc3)C2)cc1 (centres undefined) 2.56%
C=C(c1ccccc1Cl)[n+]1ccccc1 -24.3%
CC(=O)c1cccc(OCc2cc(C(=O)N(C)C(C)c3ccccn3)no2)c1 (centres undefined) -14.7%
